SMILES strings stand for the structures. About 220 (0.56%) of roughly 39,000 compounds showed activity. The list shows a part of the results.
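Note: static incubation at 37 °C against the wild-type strain, values averaged over two biological replicates.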

The subject of this test is Escherichia coli K-12 BW25113. Kind of test: relative growth (OD600 normalised to plate interquartile mean) (fraction); higher = less growth inhibition, active = 0.2 or less. The following applies: 50 µM; LB; incubation time: overnight (16-24 h).
For the compound `COc1ccc(CN(C)C[C@H]2OCCCC[C@H](C)Oc3ccc(NS(=O)(=O)c4ccc(OC)cc4)cc3C(=O)N([C@@H](C)CO)C[C@H]2C)cc1`, the relative growth is inactive: 1.02.
For `CN1CCN(C(=O)C[C@H]2CC[C@@H]3[C@H](COC[C@@H](O)CN3S(=O)(=O)c3cccc(Cl)c3)O2)CC1`, the relative growth was inactive: 1.03.
The figure for `C[C@@H]1CN([C@H](C)CO)S(=O)(=O)c2ccc(-c3ccc(C(=O)N(C)C)cc3)cc2O[C@@H]1CN(C)C(=O)C1CC1` is inactive: 1; for `C[C@H]1CN([C@@H](C)CO)C(=O)Cc2cc(NC(=O)Nc3cccc4ccccc34)ccc2O[C@H]1CN(C)Cc1ccc(Oc2ccccc2)cc1` it is inactive: 1.04; for `Cc1noc(C)c1S(=O)(=O)Nc1ccc2c(c1)C(=O)N([C@@H](C)CO)C[C@H](C)[C@@H](CN(C)C(=O)Nc1ccc(F)cc1)OCCCC[C@H](C)O2` it is inactive: 1.03.
Under `CC(C)CC#Cc1ccc2c(c1)O[C@@H](CN(C)S(=O)(=O)c1ccc(F)cc1)[C@@H](C)CN([C@H](C)CO)S2(=O)=O` stands inactive: 1.04.
Under `Cc1noc(C)c1S(=O)(=O)N(C)C[C@@H]1Oc2ccc(NC(=O)Nc3ccccc3)cc2C(=O)N([C@@H](C)CO)C[C@@H]1C` stands inactive: 0.986.
Turning to `C[C@@H]1CCCCO[C@H](CN(C)Cc2ccc(C(=O)O)cc2)[C@H](C)CN([C@H](C)CO)C(=O)c2cc(NC(=O)c3ccccc3)ccc2O1`, the relative growth is inactive: 0.998.
Under `C[C@H](CO)N1C[C@H](C)[C@H](CN(C)C(=O)Nc2ccccc2F)Oc2ncc(C#CCN(C)C)cc2C1=O` stands inactive: 1.03; under `COC(=O)c1ccc(C(=O)OC)c(N)c1`, inactive: 0.93.
`COc1ccc(S(=O)(=O)N(C)C[C@H]2Oc3c(NS(=O)(=O)c4c(C)noc4C)cccc3C(=O)N([C@@H](C)CO)C[C@@H]2C)cc1`: the relative growth is inactive: 0.989.
As for `COc1ccc(C#Cc2ccc3c(c2)O[C@@H](CN(C)S(=O)(=O)c2ccccc2F)[C@H](C)CN([C@H](C)CO)S3(=O)=O)cc1`, the relative growth is inactive: 1.06.
The figure for `NCCCC(=O)O` is inactive: 0.994; for `C[C@H]1CN([C@@H](C)CO)C(=O)c2cccc(NC(=O)c3nc4ccccc4s3)c2O[C@H]1CN(C)Cc1ccc(C(F)(F)F)cc1` it is inactive: 0.988; for `COc1cc(OC)c(NC(=O)Cn2c(=O)n(-c3ccc(CC(=O)NC[C@H]4CCCO4)cc3)c(=O)c3ccccc32)cc1Cl` it is inactive: 0.984.
The figure for `Cc1noc(C)c1NC(=O)N(C)C[C@@H]1Oc2ccc(NC(=O)C3CC3)cc2C(=O)N([C@H](C)CO)C[C@@H]1C` is inactive: 0.961.
The figure for `Cc1ncc(CO)c(CO)c1O` is inactive: 0.987; for `C[C@H]1CN([C@@H](C)CO)S(=O)(=O)c2ccc(C#CCN(C)C)cc2O[C@@H]1CN(C)Cc1ccccc1F` it is inactive: 0.995; for `COc1cccc2cc(C(C)=O)oc12` it is inactive: 1.02.
Take `C[C@H]1CN([C@@H](C)CO)C(=O)Cc2cc(NC(=O)Cn3cnnn3)ccc2O[C@H]1CN(C)CC1CCCCC1`: the relative growth is inactive: 0.977.
In the case of `C[C@@H]1CN([C@H](C)CO)C(=O)c2cccc(NC(=O)Nc3ccc(C(F)(F)F)cc3)c2O[C@H]1CN(C)C(=O)Nc1ccc(C(F)(F)F)cc1`, the relative growth is inactive: 0.978.
The figure for `CNC(=NC#N)NCCSCc1nc[nH]c1C` is inactive: 1.08; for `COc1ccc(NC(=O)N(C)C[C@H]2Oc3c(NC(=O)Nc4cccc5ccccc45)cccc3C(=O)N([C@H](C)CO)C[C@@H]2C)cc1` it is inactive: 1; for `C[C@@H]1CN([C@@H](C)CO)C(=O)c2cccc(NC(=O)c3ccc(-c4nccs4)cc3)c2O[C@@H]1CN(C)C(=O)NC1CCCCC1` it is inactive: 0.999.
Under `C[C@@H]1CN([C@H](C)CO)C(=O)c2cccc(NC(=O)Nc3ccc(C(F)(F)F)cc3)c2O[C@@H]1CN(C)S(=O)(=O)c1ccc(Cl)cc1` stands inactive: 0.868; under `C[C@@H]1CN([C@@H](C)CO)C(=O)c2cccc(NC(=O)c3nc4ccccc4s3)c2O[C@@H]1CN(C)S(=O)(=O)c1cn(C)cn1`, inactive: 0.995.
Under `C[C@@H]1CN([C@H](C)CO)C(=O)c2cc(C#Cc3ccccn3)cnc2O[C@H]1CN(C)C(=O)c1cnccn1` stands inactive: 1.01; under `COc1cc(N)ccc1N1CCCS1(=O)=O`, inactive: 0.944; under `C[C@@H]1CCCCO[C@@H](CN(C)C(=O)C2CCCCC2)[C@H](C)CN([C@H](C)CO)C(=O)c2cc(NC(=O)Nc3cccc4ccccc34)ccc2O1`, inactive: 1.04.
Regarding `Cc1noc(C)c1NC(=O)N(C)C[C@@H]1Oc2ccc(NS(C)(=O)=O)cc2CC(=O)N([C@H](C)CO)C[C@@H]1C`, the relative growth was inactive: 0.983.
On to `Nc1ccc(O)cc1`, for which the relative growth was inactive: 1.04.
Under `C[C@@H]1CN([C@H](C)CO)C(=O)c2cc(NC(=O)c3ccncc3)ccc2O[C@@H](C)CCCCO[C@H]1CN(C)C(=O)Nc1ccc(C(F)(F)F)cc1` stands inactive: 0.899.
The figure for `Cc1noc(C)c1NC(=O)N(C)C[C@@H]1Oc2ccc(NC(=O)c3ccncc3)cc2C(=O)N([C@H](C)CO)C[C@@H]1C` is inactive: 0.979; for `O=C(C[C@@H]1CC[C@H]2[C@@H](COC[C@@H](O)CN2C(=O)c2cccnc2)O1)NCC1CC1` it is inactive: 0.991.
As for `C[C@@H]1CCCCO[C@H](CN(C)Cc2ccncc2)[C@@H](C)CN([C@@H](C)CO)C(=O)c2cc(NC(=O)NC3CCCCC3)ccc2O1`, the relative growth was inactive: 1.02.
Under `C[C@H](CO)N1C[C@H](C)[C@H](CN(C)S(=O)(=O)c2ccc(Cl)cc2)Oc2ccc(N(C)C)cc2C1=O` stands inactive: 0.996; under `Cc1noc(C)c1S(=O)(=O)Nc1ccc2c(c1)C(=O)N([C@H](C)CO)C[C@@H](C)[C@@H](CN(C)Cc1ccc(-c3ccccc3)cc1)O2`, inactive: 1.
Under `C[C@@H]1CCCCO[C@@H](CN(C)C(=O)C2CCCCC2)[C@H](C)CN([C@@H](C)CO)C(=O)c2cc(NS(=O)(=O)c3ccc(Cl)cc3)ccc2O1` stands inactive: 1; under `CCS(=O)(=O)Nc1ccc2c(c1)C(=O)N(C)[C@H]1CC[C@@H](CC(=O)NCCOC)O[C@@H]1CO2`, inactive: 1; under `C[C@H]1CN([C@@H](C)CO)C(=O)Cc2cc(NC(=O)Nc3ccc(F)cc3)ccc2O[C@@H]1CN(C)S(=O)(=O)c1cn(C)cn1`, inactive: 0.962.
The figure for `CC(C)Oc1ccccc1OCc1cnnn1CC(=O)NS(=O)(=O)c1ccccc1OC(F)(F)F` is inactive: 1.
In the case of `N[C@H](C(=O)O)[C@@H](O)C(=O)O`, the relative growth is inactive: 1.04.
The figure for `C=CCn1cnc2c1c(=O)[nH]c(=O)n2C` is inactive: 0.982; for `COc1ccc(CN(C)C[C@H]2OCCCC[C@H](C)Oc3ccc(NS(=O)(=O)c4ccc(Cl)cc4)cc3C(=O)N([C@@H](C)CO)C[C@H]2C)cc1` it is inactive: 0.961; for `C[C@H]1CN([C@@H](C)CO)C(=O)c2cc(C#Cc3ccccc3F)cnc2O[C@H]1CN(C)S(=O)(=O)c1ccccc1F` it is inactive: 1.05.
Under `O=C(C[C@@H]1CC[C@H](NS(=O)(=O)c2ccc(F)cc2)[C@@H](CO)O1)NCc1ccc(Cl)c(Cl)c1` stands inactive: 0.963; under `COc1ccc(-c2ccc3n(c2=O)C[C@H]2[C@H](CO)[C@@H](C(=O)NCC4CC4)[C@@H]3N2S(C)(=O)=O)cc1`, inactive: 1.01.
The figure for `NCC[C@H]1CC[C@H](NC(=O)Cc2ccncc2)[C@@H](CO)O1` is inactive: 0.99.
`C[C@@H]1CCCCO[C@H](CN(C)S(=O)(=O)c2ccc(F)cc2)[C@H](C)CN([C@H](C)CO)C(=O)c2cc(NC(=O)Nc3cccc4ccccc34)ccc2O1`: the relative growth is inactive: 1.03.
Under `C[C@@H]1CN([C@@H](C)CO)C(=O)c2cccc(NC(=O)c3ccc(-c4nccs4)cc3)c2O[C@@H]1CN(C)Cc1ccccc1` stands inactive: 1.05; under `COCC(=O)N(C)C[C@@H]1Oc2cc(C#Cc3cccnc3)ccc2S(=O)(=O)N([C@H](C)CO)C[C@H]1C`, inactive: 1.01; under `Cc1cc(=O)n2ncnc2n1CC(=O)NN`, inactive: 1.02.
`COc1ccc(S(=O)(=O)Nc2ccc3c(c2)C(=O)N([C@@H](C)CO)C[C@@H](C)[C@H](CN(C)C(=O)Nc2ccc(C(F)(F)F)cc2)OCCCC[C@H](C)O3)cc1`: the relative growth was inactive: 1.04.
In the case of `CCS(=O)(=O)Nc1ccc2c(c1)C(=O)N(C)C[C@@H](OC)[C@H](C)CN(Cc1cccnc1)[C@H](C)CO2`, the relative growth is inactive: 1.02.
Turning to `COc1ccc(S(=O)(=O)Nc2ccc3c(c2)C(=O)N([C@H](C)CO)C[C@H](C)[C@H](CN(C)C(=O)Nc2ccc4c(c2)OCO4)OCCCC[C@@H](C)O3)cc1`, the relative growth was inactive: 0.996.
Take `C[C@H]1CN([C@@H](C)CO)C(=O)c2cccc(NC(=O)NC3CCCCC3)c2O[C@@H]1CN(C)Cc1ccc(Cl)c(Cl)c1`: the relative growth is inactive: 0.935.
The figure for `COc1ccc(NC(=O)Nc2ccc3c(c2)C(=O)N([C@H](C)CO)C[C@@H](C)[C@@H](CN(C)S(=O)(=O)c2ccccc2)OCCCC[C@H](C)O3)cc1` is inactive: 1.02; for `COCCOC(=O)N1C(=O)[C@@]2(c3cc(C#Cc4ccc(OC)cc4)ccc31)[C@H](c1ccc(O)cc1)N1[C@H](c3ccccc3)[C@H](c3ccccc3)OC(=O)[C@H]1[C@@H]2C(=O)NC[C@H](O)c1ccccc1` it is inactive: 1.04.
As to `NC(=O)CN1CCOCC1`, the relative growth is inactive: 0.998.
The figure for `CC(=O)CCC=C(C)CCC=C(C)CCC=C(C)CCC=C(C)C` is inactive: 0.937; for `COCCOC(=O)N1C(=O)[C@@]2(c3cc(C#Cc4ccc(OC)cc4)ccc31)[C@H](c1ccc(O)cc1)N1[C@H](c3ccccc3)[C@H](c3ccccc3)OC(=O)[C@H]1[C@@H]2C(N)=O` it is inactive: 0.999.
The figure for `CN1CCN(C(=O)C[C@H]2CC[C@@H]3[C@H](COc4ccc(NC(=O)c5cscn5)cc4C(=O)N3C)O2)CC1` is inactive: 0.964.

The record behind these values is the supplement of paper PMC9446081.
